From ChEMBL document CHEMBL5308541, “MAIP: An Open-Source Tool to Enrich High-Throughput Screening Output and Identify Novel, Druglike Molecules with Antimalarial Activity” (ACS Med Chem Lett, 2023)
Hit rate of the full screen: of about 150,000 compounds, about 540 (0.36%) showed an effect of 50% or more. This is one part of the list.

tested on: Plasmodium falciparum; test: Primary screen in NF54 nanoGlo assay, in single point, at 2uM, 72h; a lower Z score goes with more inhibition; type: functional, Erythrocyte; conditions: timepoint 72 hour

Structure (SMILES) | % Inhibition [%] | Z score
COc1cccc(CN2[C@@H]3CC[C@H]2CC(OC2CCN(CC(C)C)CC2)C3)n1 (stereo not given in full) | 1 | -0.16
CCC(CC)n1ncc(C(=O)NCc2cccc(C(C)=O)c2)c1C | -1 | 0.12
c1ccc2c(N3CC4CCNCC4C3)nccc2c1 (stereo not given) | 10 | -2.17
Nc1ncccc1CN1CCC(c2c[nH]c3ccc(F)cc23)CC1 | 3 | -0.58
FC(F)(F)c1cc(C2CC2)nc(Nc2nc3ccccc3n2CCN2CCCCC2)n1 | -13 | 2.27
Cc1nc(N2CCC3C(CCCN3C)C2)c2cc[nH]c2n1 (stereo not given) | 0 | 0.04
CCN1CCN(C(=O)[C@H](C)N2CC=C(c3cncc4ccccc34)CC2)CC1 | 5 | -1
CC(C)C[C@H](C)N(C(=O)c1cccc2c1oc(=O)n2C)c1ccc2[nH]ccc2c1 | 0 | -0.01
CCCOc1cncc(-c2ccc3c(c2)CNCC3)c1 | 24 | -4.72
O=C(N[C@@H]1CCC[C@@H]1N1CCC(O)C1)c1c[nH]c(-c2ccccc2)n1 (stereo not given in full) | -2 | 0.46
CC(Cc1ccc(F)cc1)NCC1CCN(CC(F)(F)F)C1 (stereo not given) | -10 | 2.25
COCCN1C(=O)N(C)C(=O)C12CCNCC2 | -7 | 1.23
Cc1cc(NC2CCC(C)C2)cc(N2CCN(C)CC2)c1 (stereo not given) | 11 | -2.4
Clc1c[nH]c2ncnc(N3CCNCC3)c12 | 4 | -0.88
COCCN(C)C[C@H](O)CN1CC=C(c2c[nH]c3ncccc23)CC1 | 1 | -0.18
CN(C)C1(CNC(=O)c2cccc(-c3ccc4ocnc4c3)c2)CCCCC1 | -5 | 0.95
c1cc(-c2ccc3c(c2)CNCC3)c2cc[nH]c2n1 | -3 | 0.52
CC(C)N1CCO[C@@H](CN2CCN(C(=O)Cc3c[nH]c4ncccc34)CC2)C1 | -7 | 1.47
CN1CCC2CN(c3ncnc4[nH]ccc34)CC2C1 (stereo not given) | 3 | -0.54
COCCOc1cncc(C(=O)N[C@@H]2CCC[C@@H]2N2CCC(O)C2)c1 (stereo not given in full) | -2 | 0.33
Cc1ccc2c(CCNCc3cccc(O)c3Cl)c[nH]c2c1 | -6 | 1.09
CC(C)c1nc(N2CCC[C@@]3(CCNC3)C2)c2cc[nH]c2n1 | 2 | -0.48

Structure (SMILES) | % Inhibition [%] | Z score
Cc1ccc2[nH]nc(-c3cccc4c3CCNC4)c2c1 | -3 | 0.39
CN1CCC[C@H](N2CCN(c3cncc(Br)c3)CC2)C1 | -9 | 1.51
C[C@@H](Cc1ccc(O)cc1)NCc1ncc[nH]1 | -3 | 0.54
O=C(C(=O)N1CC(c2ccc(F)cc2)C2C1C1CCN2CC1)N1CCOCC1 (stereo not given) | 1 | -0.12
O[C@@H](CNCc1ccc2c(c1)CCO2)c1ccc(F)c(F)c1 | 72 | -12.64
FC(F)COc1cc(CNC2CCN3CCCC3C2)ccn1 (stereo not given) | 0 | 0.1
c1ccc(-c2cncnc2N2CC[C@]3(CCNC3)C2)cc1 | -14 | 2.09
COc1ccc(C2CN(C(=O)N3CCN(C)CC3)C3C4CCN(CC4)C23)cc1 (stereo not given) | 3 | -0.57
Cc1ccc(CNc2ncnc(N)c2Cl)c(N2CCCC2)n1 | 50 | -8.64
CN1CCCN(Cc2cc(C3CC3)on2)CC12CCNCC2 | -1 | 0.15
CCN(C(C)=O)c1nc(CN2CC=C(c3c[nH]c4cc(F)ccc34)CC2)cs1 | 25 | -4.44
CC(C)c1noc(-c2ccc(OCC(=O)N3CCN(C4CCN(C)CC4)CC3)cc2)n1 | 1 | -0.15
Cc1cc(-c2ccc(C(=O)NC3COCC3N3CCCC3)cc2)nc(N)n1 (stereo not given) | 1 | -0.19
Cn1ncc2c(N3C4CCNCC3CC4)nc(C3CCCC3)nc21 (stereo not given) | -3 | 0.51
CC(Cc1ccc(O)cc1)NC1CCCc2c1[nH]c1ccccc21 (stereo not given) | 0 | 0.09
Cc1cccc2c(C3=CCNCC3)c[nH]c12 | 2 | -0.29
COc1ccc(-c2csc3ncnc(N(C)C4CCN(C[C@H]5CCOC5)CC4)c23)cc1 | -12 | 2.3
COc1ccc2[nH]cc(C3CCN([C@H]4CCN(C5CCOCC5)C4=O)CC3)c2c1 | -3 | 0.53
N[C@H]1CCCCCN(Cc2[nH]nc3ccccc23)C1 | 2 | -0.3
Fc1ccc2c(CCNCc3cc(Cl)c4c(c3)OCCCO4)c[nH]c2c1 | -5 | 0.78
O=C(NC1COCC1N1CCCCC1)c1cc(-c2ccsc2)[nH]n1 (stereo not given) | -6 | 1.23
CN(c1nc2nonc2nc1N1CCOCC1)C1CC(C)(C)NC(C)(C)C1 | -3 | 0.43

Structure (SMILES) | % Inhibition [%] | Z score
CCc1nnc(NCc2ccc(C)nc2N2CCCC2)nc1CC | -19 | 2.94
CO[C@H]1C[C@@H](CN2CCCC2)N(C(=O)Cc2ccc3[nH]ncc3c2)C1 | 10 | -1.8
O=C1[C@@H](n2c(-c3cnccn3)noc2=O)CCN1CC(F)(F)F | -10 | 2.16
COC(=O)c1cc(S(=O)(=O)N(C)[C@H]2CN3CCC2CC3)ccc1C | 20 | -3.41
Cc1[nH]c2ccccc2c1C1=CCNCC1 | 10 | -1.92
Cc1ccccc1OCCCNC(=O)CC1CC2CCC(C1)N2 (stereo not given) | 2 | -0.46
CCc1cc(N(C)C2CCN(C[C@H]3CCOC3)CC2)n2c(nc3ccccc32)c1C#N | -9 | 1.54
O=C1CNCCN1C1CCCN(CC2CC3CCC2N3)C1 (stereo not given) | -7 | 1.41
Fc1ccc(N2CC[C@H](CN3CCC(c4c[nH]c5ccccc45)(c4c[nH]c5ccccc45)CC3)C2)cc1 | 95 | -18.87
Cc1ccc([C@@H](O)CNCc2cc(O)cc(Cl)c2)cc1 | 7 | -1.59
CNC(=O)c1cc2cc(NC(=O)c3ccc(-c4noc(=O)[nH]4)cc3)ccc2[nH]1 | 16 | -3.35
Cc1ncsc1CCn1c(-c2ccncc2)noc1=O | 1 | -0.2
c1cc2[nH]ncc2cc1N[C@H]1CN2CCC1CC2 | -12 | 2.17
O=C(OCCn1cncn1)C1CC12CCCc1ccccc12 (stereo not given) | -4 | 0.82
CC(C)N1CCN([C@H]2CCN(C(=O)Cc3cccc4cnccc34)C2)CC1 | -4 | 0.62
COC1CCN(C2CCCC2NC(=O)c2ncnc3[nH]ccc23)C1 (stereo not given) | -5 | 0.93
CCOC(=O)c1cnc(N(C)C2CCN(OC)CC2)nc1C | -17 | 3.65
CCn1nc(C)c(-c2cccc(C(=O)NC3COCC3N3CCCC3)c2)c1C (stereo not given) | -2 | 0.49
CN1CCN(c2ccc(NCC3(C)CCOCC3)nc2)CC1 | -9 | 1.55
C[C@H]1C(=O)N(C)CCN1C(=O)c1cn(Cc2ccccc2)c2ccccc12 | -8 | 1.33
CN(C)C(=O)c1ccc(CN2CC=C(c3c[nH]c4ccccc34)CC2)[nH]1 | -6 | 1.01
OC1CCC(NCc2c[nH]c3ccc(Br)cc23)CC1 (stereo not given) | 5 | -0.95

Structure (SMILES) | % Inhibition [%] | Z score
CCOC1COCC1n1cc(C(=O)Nc2c(F)cccc2F)nn1 (stereo not given) | 8 | -1.19
Cc1ccc(-c2cc(C(=O)NC3CCCC3N(C)C)n[nH]2)cc1 (stereo not given) | -3 | 0.51
FC(F)(F)c1ccc2c(N3CCN4CCOC[C@@H]4C3)nccc2c1 | -4 | 0.65
COC[C@H]1CCCN1C[C@H]1CN2CC[C@H]1C[C@@H]2CNC(=O)c1ccc(C(F)(F)F)cc1 | 16 | -2.44
CC(C)Nc1cc(N2CCN([C@H]3CN4CCC3CC4)CC2)ncn1 | -7 | 1.06
COc1ccc(CCNCc2ccc3[nH]cnc3c2)c(Cl)c1 | 24 | -5.08
O=c1[nH]c2ccc(S(=O)(=O)N3CC4(CCCC4)c4ccccc43)cc2o1 | -1 | 0.28
Brc1cccc2[nH]cc(CCNC3CCN([C@H]4CCOC4)CC3)c12 | 5 | -0.89
CNC(=O)Oc1ccc2ncccc2c1 | -8 | 1.43
COc1cncc(-c2ccc(C(=O)NC3COCC3N3CCCCC3)cc2)c1 (stereo not given) | -8 | 1.19
O=C(Nc1ccc2[nH]cc(CCN3CCCC3)c2c1)c1c(F)c(F)c(F)c(F)c1F | -2 | 0.31
COc1cc(C)nc(N2CC3COCC3(CN3CCCC3)C2)n1 (stereo not given) | 0 | -0.02
O=C(N[C@H]1COC[C@@H]1N1CCCCC1)c1cnn2cc(CCO)cnc12 | -3 | 0.59
Cc1ncc2c(c1-c1noc(C3CCN(C)CC3)n1)CCN(c1cnccn1)C2 | -3 | 0.59
C1CCC(CCN2CC[C@@]3(CCCN3)C2)C1 | -5 | 0.93
Fc1ccc(CCN2CCC(Nc3ccc4c(cnn4C(F)F)c3)CC2)cc1 | -2 | 0.36
COc1ccc(CCN2CCC(CNC(=O)c3nc(Cn4c(=O)oc5ccccc54)no3)CC2)cc1 | 1 | -0.19
CN1CCC2C(CCCN2Cc2ncc(Cl)s2)C1 (stereo not given) | 0 | 0.05
CN1C2CCCC1CC(Nc1nnc(-c3ccccn3)o1)C2 (stereo not given) | -6 | 1.01
